Source: PubChem BioAssay AID651820 (National Center for Advancing Translational Sciences (NCATS), 2012)
The campaign covered roughly 340,000 compounds. About 12,000 (3.5%) were called active. The inconclusive results got no clear call from the source; some entries with a clear call stand among them for comparison. Calls follow the shape of the dose curve; as a rule, active = well fitted inhibition curve with a large enough effect; inconclusive = small, poorly fitted or top-dose-only effect, or another doubt; inactive = no such curve, though single readings can be large or run the other way. Potencies of inconclusive entries are left out as doubtful fits.
Potency is read from the fitted curve at half-maximal effect; tags tell the direction and shape of the fitted curve.

Test: qHTS Assay for Inhibitors of Hepatitis C Virus (HCV)
Conditions: Huh7.5.1 HCVcc-Cre (HCVcc is cell-culture hepatitis C virus) infection, luciferase reporter, 44 h; series mostly up to 41.8 µM
Outline: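 After 44 h co-culture of compound, cells and HCVcc-Cre (~0.5 moi), substrate is added for 15 min at room temperature and luciferase measured over 15 sec. Cells were seeded at 1,000/well and pre-cultured 4 h.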
In the case of `CCCCCCn1c(=O)c(C(=O)Nc2ccncc2)c(O)c2ccccc21`, the Potency is reported as “inactive”. For `c1ccc(-n2nnnc2SCc2cccc3nsnc23)cc1`, the Potency was inconclusive [inhibitor, single point]. For `CCN(CC)C(=O)C1CCCN(Cc2ccc(OC)c(C)c2C)C1` (configuration not stated), the Potency was inconclusive [inhibitor, full curve]. In the case of `O=c1c2ccccc2cnn1Cc1n[nH]c(=S)n1C1CC2CCC1C2` (configuration not stated), the Potency is reported as inconclusive [inhibitor, partial curve]. For `O=S(=O)(c1ccccc1)[C@@]1(c2ccc(Br)cc2)C[C@@H]2ON=C(c3ccccc3)[C@@H]2C1`, the Potency was active: 10 µM. With `CC(C)(C)c1cc(NC(=O)c2cccs2)no1` the Potency was “inactive”. With `NS(=O)(=O)c1ccc(NC(=O)/C=C/c2ccc(S(=O)(=O)NCc3ccco3)cc2)cc1` the Potency was inconclusive [inhibitor, full curve, poor fit]. With `N#Cc1ccc(CSc2nnc(-c3ccncc3)o2)cc1` the Potency was “inactive”. In the case of `CCOc1ccc(Cc2onc3c2C(=O)CCC3)cc1OCC`, the Potency is reported as inconclusive [inhibitor, single point]. For `Cc1ccc(S(=O)(=O)c2nc(Nc3ccccc3N3CCOCC3)sc2Cl)cc1`, the Potency was active: 10 µM. In the case of `CC1(C)CC(=O)C2=C(C1)OC1=C(C(=O)CC(C)(C)C1)C2c1ccccc1`, the Potency is reported as inconclusive [inhibitor, partial curve]. In the case of `CCOC(=O)N1CCN(C(=O)COC(=O)c2cc(Cl)cc(Cl)c2)CC1`, the Potency is reported as “inactive”. With `CC1CCN(S(=O)(=O)c2ccccc2)CC1` the Potency was inconclusive [inhibitor, single point]. For `COc1ccc2[nH]cc(CCNS(=O)(=O)Cc3ccccc3)c2c1`, the Potency was inconclusive [inhibitor, partial curve]. In the case of `COc1cc(CN2CCN(c3cc(C)ccc3C)CC2)ccc1O`, the Potency is reported as inconclusive [inhibitor, single point]. With `O=C(NCC(=O)N1CC(O)CC1C(=O)N1CC(O)CC1C(=O)OCc1ccccc1)OCc1ccccc1` (configuration not stated) the Potency was “inactive”. With `Cc1ccc(C)c(Cn2c(O)c(N=NC(=S)Nc3ccccc3F)c3ccccc32)c1` the Potency was active: 3.16 µM. For `COc1ccc(NC(=O)CSc2nnc3c4c(nc(-c5ccccc5)n23)CC(C)(C)OC4)cc1`, the Potency was inconclusive [inhibitor, single point]. For `COc1ccc(Cl)cc1-c1csc(N)n1`, the Potency was inconclusive [inhibitor, single point]. For `CCC(NS(=O)(=O)c1ccc(C)cc1)C(=O)N1CCOCCOCCOCCOCC1` (configuration not stated), the Potency was “inactive”. With `CCOCCCNC(=O)CN1C(=O)/C(=C/c2ccccc2C)Sc2ccccc21` the Potency was “inactive”. For `COc1ccc(OC)c(NC(=O)c2cccc3c2C(=O)N(C2CCCCC2)C3)c1`, the Potency was inconclusive [inhibitor, single point]. In the case of `COc1ccc(C2/C=C\CN(S(=O)(=O)c3ccc(-c4ccccc4)cc3)CC(=O)N2Cc2ccc(F)cc2)cc1` (configuration not stated), the Potency is reported as “inactive”. For `CC(=O)Nc1nc(-c2ccc(Cl)cc2)ns1`, the Potency was inconclusive [inhibitor, single point]. For `CSc1ncccc1C(=O)OCC(=O)NC1CCCc2ccccc21` (configuration not stated), the Potency was inconclusive [inhibitor, partial curve, poor fit]. For `CCCCC1=CC2=CC(=O)C(C)(OC(=O)CC)C(=O)C2=CN1Cc1ccc2c(c1)OCO2` (configuration not stated), the Potency was inconclusive [inhibitor, single point]. In the case of `CCOC(=O)C1CCCN(C(=S)Nc2ccc(F)cc2)C1` (configuration not stated), the Potency is reported as “inactive”. In the case of `CN(Cc1ccccc1)CC(O)COc1ccc(CNCCc2cccnc2)cc1` (configuration not stated), the Potency is reported as inconclusive [inhibitor, partial curve]. In the case of `CC(=O)c1c(C)[nH]c(C(=O)CSc2ccc(F)cc2)c1C`, the Potency is reported as active: 12.6 µM. In the case of `CCC(=O)N1CCc2cc(Br)cc(S(=O)(=O)NCCN3CCCCC3CC)c21` (configuration not stated), the Potency is reported as active: 2.51 µM. For `c1cnc(Oc2ccc3oc4ccccc4c3c2)nc1`, the Potency was “inactive”. For `NC(=O)C1CCCN(C(=O)c2ccc(Cl)c(S(=O)(=O)N3CCc4ccccc43)c2)C1` (configuration not stated), the Potency was inconclusive [inhibitor, single point]. In the case of `Cc1cc(=O)oc2cc(OCCc3ccccc3)ccc12`, the Potency is reported as inconclusive [inhibitor, single point]. With `COc1ccc(NS(=O)(=O)c2ccc(NC(=O)c3ccc(N(C)S(C)(=O)=O)cc3)cc2)cc1` the Potency was active: 5.62 µM. For `Cc1nc(SC(C)C(=O)NC2CCCC2)c2ccccc2n1` (configuration not stated), the Potency was inconclusive [inhibitor, single point]. In the case of `Cc1ccc(C(C)C)c(Oc2nnnn2-c2ccccc2)c1`, the Potency is reported as inconclusive [inhibitor, single point]. With `COc1ccc(/C=C2\SC(=S)N(CCC(=O)Nc3cccc(C(=O)O)c3)C2=O)cc1` the Potency was “inactive”.
